In paper PMC5839781 (The Journal of Cell Biology, 2018):

Target: T1, Flag-ZW10 (mouse, UniProt O54692 1-779)
T1 sequence (looked up): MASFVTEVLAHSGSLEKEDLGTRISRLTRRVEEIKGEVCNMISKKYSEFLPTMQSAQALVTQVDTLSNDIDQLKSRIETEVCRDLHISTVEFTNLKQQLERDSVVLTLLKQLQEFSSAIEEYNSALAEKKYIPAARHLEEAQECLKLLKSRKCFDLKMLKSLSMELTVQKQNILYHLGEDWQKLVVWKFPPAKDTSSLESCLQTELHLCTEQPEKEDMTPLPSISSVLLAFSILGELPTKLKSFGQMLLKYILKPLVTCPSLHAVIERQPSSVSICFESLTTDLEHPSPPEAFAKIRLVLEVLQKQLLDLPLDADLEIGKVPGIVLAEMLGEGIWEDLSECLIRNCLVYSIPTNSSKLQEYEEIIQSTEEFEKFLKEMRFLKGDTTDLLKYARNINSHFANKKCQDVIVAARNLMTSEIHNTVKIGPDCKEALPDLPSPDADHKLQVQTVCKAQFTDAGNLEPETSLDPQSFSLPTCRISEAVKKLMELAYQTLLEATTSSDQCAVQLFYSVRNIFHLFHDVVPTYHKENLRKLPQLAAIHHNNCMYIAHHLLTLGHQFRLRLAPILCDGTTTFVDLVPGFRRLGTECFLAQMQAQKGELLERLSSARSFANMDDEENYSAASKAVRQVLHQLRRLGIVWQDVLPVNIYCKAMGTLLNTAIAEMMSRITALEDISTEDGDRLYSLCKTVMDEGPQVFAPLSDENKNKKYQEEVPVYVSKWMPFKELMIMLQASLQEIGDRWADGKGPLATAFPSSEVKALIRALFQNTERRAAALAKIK
Test: pull-down

B1: GST-Rab18 (natural protein)
chain: not shown
B1: binds.
